Measurements: PubChem BioAssay (NCI)
Several values for one entry are separate records, joined by “and”; a condition that tells them apart may be missing. Identical values can stand only once.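 Each compound was tested at five concentrations against cells in 96-well plates for 48 hours. GI50 = concentration required for 50% inhibition of growth. TGI denotes the concentration required for complete inhibition of growth.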

test system: NCI-H322M lung; test: DTP human tumour cell line panel, 48 h

Question: How did the GI50 turn out when `COc1ccc(-c2nc3ccccn3c2/C=C/C(=O)c2cc(OC)c(OC)c(OC)c2)cc1` was run?
Answer: 4.63 µM

Question: What about the TGI of the same compound?
Answer: > 100 µM

Question: `CCCCNC(=S)Nc1nc(C(=O)NNC(=S)NC2CCCCC2)cs1` was tested. Which TGI did it give?
Answer: > 100 µM

Question: How did the TGI turn out when `O=C1/C(=C/c2ccccc2O)N=C(c2ccccc2)N1c1nc2ccccc2s1` was run?
Answer: > 100 µM

Question: How did the TGI turn out when `O=C(O)c1cn2c3c(cc(N4CCN(CCO)CC4)cc3c1=O)SCC2` was run?
Answer: > 100 µM

Question: With `O=C(O)/C(=C/C=C/c1ccccc1)c1csc(-c2nc(/C(=C\C=C\c3ccccc3)C(=O)O)cs2)n1` as the compound, how does the TGI read?
Answer: > 100 µM

Question: `O=c1[nH]c(=O)n(C2CC(O)C(CO)O2)cc1C1=NC1` (centres undefined) was tested. Which TGI did it give?
Answer: > 100 µM

Question: `CCOC(=O)C(=Cc1ccc(Oc2ccccc2)cc1)C(=O)OCC` was tested. Which TGI did it give?
Answer: 26.6 µM

Question: Which results are given for `CC(=Nc1ccccc1)C1=C(O)C(Cc2ccccc2)NC1=O` (centres undefined)?
Answer: GI50: 0.0657 µM; TGI: > 100 µM

Question: Which results are given for `NC(=O)c1ccc2nc(-c3ccc(Oc4ccc(Cl)cc4)cc3)[nH]c2c1`?
Answer: GI50: > 75 µM and 16.1 µM; TGI: > 75 µM and 30.7 µM

Question: With `CC(=O)N(O)[C@@H]1CC[C@H](n2cnc3c(N)ncnc32)C1` as the compound, how does the TGI read?
Answer: > 100 µM

Question: How did the TGI turn out when `Cn1c(-c2ccccc2)cc2c3ccsc3c3ccsc3c21` was run?
Answer: > 100 µM

Question: How did the GI50 turn out when `COc1ccc2c(c1)C(=O)c1c-2c(Nc2ccc(Cl)cc2)nc2ccccc12` was run?
Answer: 23.1 µM

Question: And the TGI?
Answer: > 100 µM

Question: Which results are given for `NC(=O)c1cc(-c2ccc(F)cc2)cc(-c2ccncc2)c1N`?
Answer: GI50: > 25 µM; TGI: > 25 µM

Question: With `COc1cc2c3c(c1OC)-c1c(ccc4c1OCO4)CC3(C#N)N(C(=O)c1ccccc1)CC2` (centres undefined) as the compound, how does the TGI read?
Answer: > 100 µM

Question: For `COc1ccc(/C=C2\CCC(CNc3ccc(OC)cc3)C2=O)cc1` (centres undefined), which TGI is on record?
Answer: > 100 µM

Question: With `CCNC(=O)c1cc2c(-c3cc(C(C)(C)O)ccc3Oc3c(C)cc(F)cc3C)cn(C)c(=O)c2[nH]1` as the compound, how does the GI50 read?
Answer: 1.71 µM

Question: What about the TGI of the same compound?
Answer: 14.9 µM

Question: Which results are given for `CCC1CCc2nc3sc(C(=O)Nc4cccc(F)c4)c(N)c3cc2C1` (centres undefined)?
Answer: GI50: > 100 µM; TGI: > 100 µM

Question: Which TGI does the source give for `Cc1c2cnccc2c(C)c2c1c1ccccc1n2CCCCCCNCc1ccccc1` here?
Answer: 2.75 µM

Question: Which TGI does the source give for `CNC(=O)N(C)COC` here?
Answer: > 100 µM

Question: With `COCOc1c(C(O[Si](C)(C)C(C)(C)C)c2cnc(Sc3ccccc3)n2C)ccc(OC)c1OC` (centres undefined) as the compound, how does the TGI read?
Answer: 7.57 µM

Question: Which TGI does the source give for `Nc1nc(Cl)cc(NCCC2(CO)CCC2)n1` here?
Answer: > 100 µM

Question: With `COCCCNC(=O)CC(=O)NCCCOC` as the compound, how does the TGI read?
Answer: > 100 µM

Question: For `Cc1cc(Cl)ccc1NC(=O)c1cc2ccccc2cc1O`, which GI50 is on record?
Answer: 1.6 µM

Question: What about the TGI of the same compound?
Answer: > 100 µM

Question: `O=C1CCC(=O)N1n1c(Cc2ccc(Cl)cc2)n[nH]c1=O` was tested. Which TGI did it give?
Answer: > 100 µM

Question: `COc1cc2c3c(n(CCCI)c(=O)c2cc1OC)-c1cc2c(cc1C3=O)OCO2` was tested. Which GI50 did it give?
Answer: 5.67 µM

Question: What about the TGI of the same compound?
Answer: > 100 µM

Question: `NCCCNC1(c2cc3ccccc3s2)CCCCC1` was tested. Which TGI did it give?
Answer: 21.1 µM

Question: Which TGI does the source give for `CCc1cccc(C(C)C)c1N1C(=O)C(=O)C(c2nc3ccccc3s2)C(=O)C1=O` here?
Answer: > 50 µM

Question: For `Nc1nc(-c2ccccc2)nc2c1[n+]([O-])c1ccccc1[n+]2[O-]`, which TGI is on record?
Answer: > 100 µM

Question: How did the TGI turn out when `COc1cc(COC(=O)N(CC(=O)O)c2ccccc2)c([N+](=O)[O-])cc1OC` was run?
Answer: > 100 µM

Question: How did the TGI turn out when `CCN1CCN(c2nc3ccc([N+](=O)[O-])cc3nc2C(=O)c2ccccc2)CC1` was run?
Answer: > 100 µM

Question: For `Cn1c2ccccc2c2c(=O)[nH]c(=O)[nH]c21`, which TGI is on record?
Answer: > 100 µM

Question: Which results are given for `CC[C@@H](C(=O)[C@@H](C)[C@@H](O)[C@H](C)[C@@H]1O[C@@H]([C@@H](CC)C(=O)N(CC)CC)CC[C@@H]1C)C1O[C@]2(C=CC(=O)[C@]3(CC[C@@](C)([C@H]4CC[C@](O)(CC)[C@H](C)O4)O3)O2)[C@H](C)C[C@@H]1C` (some centres undefined)?
Answer: GI50: 3.3 µM; TGI: > 100 µM

Question: With `CN(C)c1ccccc1CN1CCCN(Cc2ccccc2N(C)C)C1c1ccncc1` as the compound, how does the TGI read?
Answer: 25.3 µM

Question: `Cc1occc1C(=S)Nc1ccc(Cl)c(C(=O)OC(C)C2CC2)c1` (centres undefined) was tested. Which TGI did it give?
Answer: > 100 µM

Question: Which results are given for `CC(=O)O[C@]1(C(C)=O)CC[C@H]2[C@@H]3C=C(C)C4=CC(=O)CC[C@]4(C)[C@H]3CC[C@@]21C`?
Answer: GI50: > 100 µM; TGI: > 100 µM

Question: For `COC(=O)c1ccc(C)cc1/C=C1\Cc2ccc(C)cc2C1=O`, which TGI is on record?
Answer: 93.4 µM

Question: For `C#CC1(O)C(COP(=O)(O)OCC2OC(n3ccc(NCCCCCCCCCCCCCCCCCC)nc3=O)C(O)C2O)OC(n2ccc(N)nc2=O)C1O` (centres undefined), which TGI is on record?
Answer: 20.8 µM

Question: With `Cc1c(COc2cc(OCc3cccc(C#N)c3)c(CN3C[C@H](O)C[C@@H]3C(=O)O)cc2Cl)cccc1-c1ccc2c(c1)OCCO2` as the compound, how does the GI50 read?
Answer: 15.5 µM

Question: What about the TGI of the same compound?
Answer: 29.2 µM

Question: `O=[N+]([O-])c1cccc(-c2oc(C=Nc3ccccc3)c([N+](=O)[O-])c2-c2cccc([N+](=O)[O-])c2)c1` was tested. Which TGI did it give?
Answer: > 100 µM

Question: `NCCCNCCCCN(CCCN)/[N+]([O-])=N\O` was tested. Which TGI did it give?
Answer: > 100 µM

Question: Which TGI does the source give for `COC(=O)C1CCC(=O)N1C(c1ccc(OC)cc1)c1ccc(OC)cc1` (centres undefined) here?
Answer: > 100 µM

Question: With `O=C(Nc1ccc2ncnc(Nc3ccc(Oc4cccc(F)c4)c(Cl)c3)c2c1)c1ccc(CNCCO)cc1` as the compound, how does the GI50 read?
Answer: 1.33 µM

Question: What about the TGI of the same compound?
Answer: 2.68 µM

Question: How did the TGI turn out when `CCOC(=O)C(C(=S)Nc1ccccc1)c1nn2c(=O)cc(C)nc2s1` (centres undefined) was run?
Answer: 52.2 µM

Question: How did the TGI turn out when `Cc1ccc(O)c(-c2cc(-c3cccc(Cl)c3)c(C#N)c(N)n2)c1` was run?
Answer: 97.6 µM

Question: With `CC1(CCCO)CCCCCCCCCC(C)(CCCO)C1=O` (centres undefined) as the compound, how does the TGI read?
Answer: > 100 µM

Question: For `COC(=O)C1=C(C)NC(C)=C(C(=O)OC)C1/C=C(Cl)/C=C/c1ccccc1`, which GI50 is on record?
Answer: 30.5 µM

Question: What about the TGI of the same compound?
Answer: > 100 µM

Question: With `O=C/C=C/c1ccco1` as the compound, how does the TGI read?
Answer: > 100 µM

Question: For `O=C(CCCCCCC(=O)Nc1cccnc1)NO`, which TGI is on record?
Answer: > 100 µM

Question: With `CCCCCCCCCCCCOP(=O)(O)OCC(N)C(=O)O` (centres undefined) as the compound, how does the TGI read?
Answer: 98.2 µM

Question: `CN(CC(=O)N(Cc1ccc(C2CCCCC2)cc1)c1ccc(C(=O)O)c(O)c1)S(=O)(=O)c1c(F)c(F)c(F)c(F)c1F` was tested. Which GI50 did it give?
Answer: 9.3 µM

Question: What about the TGI of the same compound?
Answer: 23.5 µM

Question: For `COc1cc(Nc2ccnc(NCCCNc3ccnc4cc(Cl)ccc34)n2)cc(OC)c1`, which GI50 is on record?
Answer: 1.83 µM

Question: What about the TGI of the same compound?
Answer: 5.38 µM

Question: How did the TGI turn out when `O=c1[nH]c(Nc2cc(Cl)cc(Cl)c2)nc2nc[nH]c12` was run?
Answer: > 75 µM

Question: `COc1cc2c(cc1C)NC(=O)/C2=C\c1cccc(Oc2ccccc2)c1` was tested. Which GI50 did it give?
Answer: 19.7 µM

Question: And the TGI?
Answer: 46.7 µM

Question: How did the TGI turn out when `COc1ccc(/C=c2\sc3n(c2=O)C(N)=C(C#N)C(c2ccc(OC)cc2)C=3c2nc3ccccc3[nH]2)cc1` (centres undefined) was run?
Answer: 61.5 µM

Question: `CSCCCNC(=O)c1csc(-c2csc(C(CNC(=O)OC(C)(C)C)CNC(=O)OC(C)(C)C)n2)n1` was tested. Which TGI did it give?
Answer: > 100 µM

Question: How did the TGI turn out when `N=C(N)SCc1ccc(Cl)cc1Cl` (tested in a mixture with another compound) was run?
Answer: > 57.3 µM

Question: Which GI50 does the source give for `Oc1[nH]c2ccc(Cl)cc2c1/C=c1/ccc2c(c1)N=C(c1ccc(F)cc1)N=2` here?
Answer: 2.62 µM

Question: What about the TGI of the same compound?
Answer: 7.22 µM

Question: With `Cc1cc(C)nc(NS(=O)(=O)c2ccc(Nc3c4ccc(Cl)cc4nc4c(C(=O)Nc5ccc(S(N)(=O)=O)cc5)cccc34)cc2)n1` as the compound, how does the TGI read?
Answer: 64 µM

Question: How did the TGI turn out when `O=C(CC1(O)C(=O)Nc2c(Cl)cc(Cl)cc21)c1cccc2ccccc12` (centres undefined) was run?
Answer: 33.5 µM

Question: For `CSc1c(C#N)c(N)nc2c(N=Nc3ccc(Cl)cc3)c(N)nn12`, which TGI is on record?
Answer: 12.5 µM

Question: What does the source list for `CCCCCCCCCCCCCC[n+]1ccc2c(C)c3c(c(C)c2c1)c1cc(O)ccc1n3CC`?
Answer: GI50: 0.443 µM; TGI: 1.73 µM

Question: `CCCCCCOP(=O)(OCCCCCC)C(NC(=O)OCC)(C(F)(F)F)C(F)(F)F` was tested. Which TGI did it give?
Answer: > 100 µM

Question: How did the TGI turn out when `S=c1cc(S)sc2c1c(=S)sc1nc3ccccn3c(=S)c12` was run?
Answer: > 100 µM

Question: With `COC1(OC)CC(CO)(CNc2cc(Cl)nc(N)n2)C1` as the compound, how does the TGI read?
Answer: > 100 µM

Question: Which TGI does the source give for `CCOC(=O)C1OC(C2(C)OC3(OC4(C=CC3O)OC(C(C)C(=O)C(C)C(O)C(C)CC(C)c3c(Cl)cc(C)c(O)c3C(=O)O)C(C)CC4C)C(C)C2OC)CC1O` (centres undefined) here?
Answer: 6.22 µM

Question: `CCOC(=O)NC(NC1=NCCS1)(C(=O)OCC)C(F)(F)F` (centres undefined) was tested. Which TGI did it give?
Answer: > 100 µM

Question: Which results are given for `Nc1nc(-c2ccccc2)nc(N)c1N=O`?
Answer: GI50: 17.4 µM; TGI: 50 µM

Question: `c1csc(-c2cc(-c3cccs3)c(-c3cccs3)s2)c1` was tested. Which TGI did it give?
Answer: > 100 µM

Question: For `N=c1c2c(-c3ccccc3)c[nH]c2ncn1N`, which TGI is on record?
Answer: > 100 µM
